# The supplement of paper PMC10369915
# This is one part of the list. No stated cut-off is given here; in the data, active = 3.2 or more and inactive = the rest. Only a few entries rise above the background.
# Biological target: SHP2 C-SH2 domain E139D
# Assay: enrichment score (SH2-bound / input frequency) (ratio); bacterial display of known human phosphotyrosine sites (pTyr-Var adds point mutants) read by sequencing; higher = stronger binding; tyrosines were phosphorylated by kinases first
# Details: peptide library: pTyr-Var
# 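Further: displayed peptides selected on beads carrying the immobilized SH2 domain, with library peptides lacking any tyrosine serving as negative controls.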
row,Binder,enrichment score
1,AFHGEYIPTVF [RAC2_Y32_P29H],inactive: 0.965
2,AFLGEYIPTVF [RAC2_Y32_P29L],inactive: 1.24
3,AGQKDYDRLRP [RAC3_Y64_E62K],inactive: 0.61
4,AGLEDYDRLRP [RAC3_Y64_Q61L],inactive: 0.509
5,HRAVEYLLMGI [RAD23A_Y197_T200M],inactive: 2.82
6,KDIENYIQDGK [RAD50_Y964],inactive: 0.768
7,SSQHRYSTPHA [RAF1_Y232],inactive: 0.512
8,HRDSSYYWEIE [RAF1_Y340_Q335H],inactive: 1.11
9,HRDSSYFWEIE [RAF1_Y340_Q335H_YF],inactive: 0.925
10,QRDSSYFWEIE [RAF1_Y340_YF],inactive: 0.652
11,AEMKRYAESSS [RAI14_Y869],inactive: 0.407
12,SKDQICPMKLK [RANBP17_Y823_Y823C],inactive: 0.936
13,PSPTKYSLSPS [RANBP2_Y785_R784K],inactive: 0.626
14,TYEPNYGTVKR [RAPGEF6_Y1447_Q1452R],inactive: 0.552
15,RQQEVYLLYKQ [RARRES1_Y159_D158V],inactive: 1.74
16,RQQEVYLLFKQ [RARRES1_Y159_D158V_YF],inactive: 1.96
17,RGESFYQDTMN [RARS_Y338_R341T],inactive: 0.602
18,SEHLIYLEFKS [RASGRP1_Y215_T214I],inactive: 1.47
19,IGSQRYKLGVR [RB1_Y446],inactive: 0.935

# Biological target: SHP2 C-SH2 domain wild-type
# Assay: as above
# Details: peptide library: pTyr-Var
row,Binder,enrichment score
1,AFHGEYIPTVF [RAC2_Y32_P29H],inactive: 1.13
2,AFLGEYIPTVF [RAC2_Y32_P29L],inactive: 1.16
3,AGQKDYDRLRP [RAC3_Y64_E62K],inactive: 0.562
4,AGLEDYDRLRP [RAC3_Y64_Q61L],inactive: 0.417
5,HRAVEYLLMGI [RAD23A_Y197_T200M],inactive: 2.41
6,KDIENYIQDGK [RAD50_Y964],inactive: 0.798
7,SSQHRYSTPHA [RAF1_Y232],inactive: 0.458
8,HRDSSYYWEIE [RAF1_Y340_Q335H],inactive: 0.989
9,HRDSSYFWEIE [RAF1_Y340_Q335H_YF],inactive: 1.15
10,QRDSSYFWEIE [RAF1_Y340_YF],inactive: 0.906
11,AEMKRYAESSS [RAI14_Y869],inactive: 0.408
12,SKDQICPMKLK [RANBP17_Y823_Y823C],inactive: 0.646
13,PSPTKYSLSPS [RANBP2_Y785_R784K],inactive: 0.604
14,TYEPNYGTVKR [RAPGEF6_Y1447_Q1452R],inactive: 0.479
15,RQQEVYLLYKQ [RARRES1_Y159_D158V],inactive: 1.4
16,RQQEVYLLFKQ [RARRES1_Y159_D158V_YF],inactive: 1.96
17,RGESFYQDTMN [RARS_Y338_R341T],inactive: 0.602
18,SEHLIYLEFKS [RASGRP1_Y215_T214I],inactive: 1.47
19,IGSQRYKLGVR [RB1_Y446],inactive: 0.85

# Biological target: SHP2 N-SH2 domain L43F
# Assay: as above
# Details: peptide library: pTyr-Var
row,Binder,enrichment score
1,AFHGEYIPTVF [RAC2_Y32_P29H],inactive: 1.02
2,AFLGEYIPTVF [RAC2_Y32_P29L],inactive: 1.29
3,AGQKDYDRLRP [RAC3_Y64_E62K],inactive: 0.506
4,AGLEDYDRLRP [RAC3_Y64_Q61L],inactive: 0.672
5,HRAVEYLLMGI [RAD23A_Y197_T200M],inactive: 2.81
6,KDIENYIQDGK [RAD50_Y964],inactive: 0.728
7,SSQHRYSTPHA [RAF1_Y232],inactive: 0.524
8,HRDSSYYWEIE [RAF1_Y340_Q335H],inactive: 0.497
9,HRDSSYFWEIE [RAF1_Y340_Q335H_YF],inactive: 0.718
10,QRDSSYFWEIE [RAF1_Y340_YF],inactive: 0.801
11,AEMKRYAESSS [RAI14_Y869],inactive: 0.425
12,SKDQICPMKLK [RANBP17_Y823_Y823C],inactive: 0.842
13,PSPTKYSLSPS [RANBP2_Y785_R784K],inactive: 0.518
14,TYEPNYGTVKR [RAPGEF6_Y1447_Q1452R],inactive: 0.477
15,RQQEVYLLYKQ [RARRES1_Y159_D158V],inactive: 1.27
16,RQQEVYLLFKQ [RARRES1_Y159_D158V_YF],inactive: 1.79
17,RGESFYQDTMN [RARS_Y338_R341T],inactive: 0.531
18,SEHLIYLEFKS [RASGRP1_Y215_T214I],inactive: 1.43
19,IGSQRYKLGVR [RB1_Y446],inactive: 0.923

# Biological target: SHP2 N-SH2 domain T42A
# Assay: as above
# Details: peptide library: pTyr-Var
row,Binder,enrichment score
1,AFHGEYIPTVF [RAC2_Y32_P29H],inactive: 1.08
2,AFLGEYIPTVF [RAC2_Y32_P29L],inactive: 1.18
3,AGQKDYDRLRP [RAC3_Y64_E62K],inactive: 0.404
4,AGLEDYDRLRP [RAC3_Y64_Q61L],inactive: 0.496
5,HRAVEYLLMGI [RAD23A_Y197_T200M],active: 4.11
6,KDIENYIQDGK [RAD50_Y964],inactive: 0.648
7,SSQHRYSTPHA [RAF1_Y232],inactive: 0.52
8,HRDSSYYWEIE [RAF1_Y340_Q335H],inactive: 0.948
9,HRDSSYFWEIE [RAF1_Y340_Q335H_YF],inactive: 0.916
10,QRDSSYFWEIE [RAF1_Y340_YF],inactive: 0.555
11,AEMKRYAESSS [RAI14_Y869],inactive: 0.359
12,SKDQICPMKLK [RANBP17_Y823_Y823C],inactive: 0.875
13,PSPTKYSLSPS [RANBP2_Y785_R784K],inactive: 0.793
14,TYEPNYGTVKR [RAPGEF6_Y1447_Q1452R],inactive: 0.518
15,RQQEVYLLYKQ [RARRES1_Y159_D158V],inactive: 1.43
16,RQQEVYLLFKQ [RARRES1_Y159_D158V_YF],inactive: 2.05
17,RGESFYQDTMN [RARS_Y338_R341T],inactive: 0.388
18,SEHLIYLEFKS [RASGRP1_Y215_T214I],inactive: 1.23
19,IGSQRYKLGVR [RB1_Y446],inactive: 0.684

# Biological target: SHP2 N-SH2 domain T52S
# Assay: as above
# Details: peptide library: pTyr-Var
row,Binder,enrichment score
1,AFHGEYIPTVF [RAC2_Y32_P29H],inactive: 1.06
2,AFLGEYIPTVF [RAC2_Y32_P29L],inactive: 1.39
3,AGQKDYDRLRP [RAC3_Y64_E62K],inactive: 0.712
4,AGLEDYDRLRP [RAC3_Y64_Q61L],inactive: 0.516
5,HRAVEYLLMGI [RAD23A_Y197_T200M],inactive: 2.84
6,KDIENYIQDGK [RAD50_Y964],inactive: 0.71
7,SSQHRYSTPHA [RAF1_Y232],inactive: 0.489
8,HRDSSYYWEIE [RAF1_Y340_Q335H],inactive: 0.97
9,HRDSSYFWEIE [RAF1_Y340_Q335H_YF],inactive: 0.751
10,QRDSSYFWEIE [RAF1_Y340_YF],inactive: 0.543
11,AEMKRYAESSS [RAI14_Y869],inactive: 0.34
12,SKDQICPMKLK [RANBP17_Y823_Y823C],inactive: 0.733
13,PSPTKYSLSPS [RANBP2_Y785_R784K],inactive: 0.722
14,TYEPNYGTVKR [RAPGEF6_Y1447_Q1452R],inactive: 0.652
15,RQQEVYLLYKQ [RARRES1_Y159_D158V],inactive: 0.965
16,RQQEVYLLFKQ [RARRES1_Y159_D158V_YF],inactive: 1.74
17,RGESFYQDTMN [RARS_Y338_R341T],inactive: 0.523
18,SEHLIYLEFKS [RASGRP1_Y215_T214I],inactive: 1.58
19,IGSQRYKLGVR [RB1_Y446],inactive: 0.869

# Biological target: SHP2 N-SH2 domain wild-type
# Assay: as above
# Details: peptide library: pTyr-Var
row,Binder,enrichment score
1,AFHGEYIPTVF [RAC2_Y32_P29H],inactive: 1.09
2,AFLGEYIPTVF [RAC2_Y32_P29L],inactive: 1.15
3,AGQKDYDRLRP [RAC3_Y64_E62K],inactive: 0.514
4,AGLEDYDRLRP [RAC3_Y64_Q61L],inactive: 0.468
5,HRAVEYLLMGI [RAD23A_Y197_T200M],inactive: 2.97
6,KDIENYIQDGK [RAD50_Y964],inactive: 0.647
7,SSQHRYSTPHA [RAF1_Y232],inactive: 0.5
8,HRDSSYYWEIE [RAF1_Y340_Q335H],inactive: 1.13
9,HRDSSYFWEIE [RAF1_Y340_Q335H_YF],inactive: 0.796
10,QRDSSYFWEIE [RAF1_Y340_YF],inactive: 0.49
11,AEMKRYAESSS [RAI14_Y869],inactive: 0.421
12,SKDQICPMKLK [RANBP17_Y823_Y823C],inactive: 1.09
13,PSPTKYSLSPS [RANBP2_Y785_R784K],inactive: 0.63
14,TYEPNYGTVKR [RAPGEF6_Y1447_Q1452R],inactive: 0.58
15,RQQEVYLLYKQ [RARRES1_Y159_D158V],inactive: 1.79
16,RQQEVYLLFKQ [RARRES1_Y159_D158V_YF],inactive: 1.51
17,RGESFYQDTMN [RARS_Y338_R341T],inactive: 0.512
18,SEHLIYLEFKS [RASGRP1_Y215_T214I],inactive: 1.42
19,IGSQRYKLGVR [RB1_Y446],inactive: 0.813
